Variants at the background level are over-represented here.
B1: TPR 5TU (parent)
chain: GGAUCUUCUCGAUCUAACAAAAAAGACAAAUCUGCCACAAAGCUUGAGAGCAUCUUCGGAUGCAGAGGCGGCAGCCUUCGGUGGCGCGAUAGCGCCAACGUUCUCAACUAUGACACGCAAAACGCGUGCUCCGUUGAAUGGAGUUUAUCAUG

Variants of: B1
Assay: polymerase ribozyme fitness, log enrichment relative to wild type (log ratio); higher = more active; in vitro selection for triplet polymerase activity
Outline: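 Mutant libraries were PCR-built and transcribed for each subunit of a heterodimeric triplet polymerase ribozyme and selected for one round in triplicate at −7 °C, frozen, before gel excision of extended constructs and streptavidin-bead capture. Input and output libraries were Illumina-sequenced, keeping genotypes with ≥10 input reads and ≥1 read per output. Fitness is a logarithmic ratio of genotype to wild-type enrichment, in base 2, using inverse-variance-weighted replicate averages.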

Variant | polymerase ribozyme fitness (log ratio)
GGAUCUUCUCGAUCUAACUAAAAUGACAAAUUUGCCACAAAGCUUGAGAGCAUCUUCGGAUGCAGAGGCGGCAGCAUUCGGUGGCGCGAUAGCGCCAACGUUCUCAACUAUGACACGCAAAACGCGUGCUCCGUUGAAUGCAGUUUAUCAUG [A19U A24U C32U C76A G141C] | ≤ -4.2
GGAUCUUCUCGAUCUAACUAAAAAGCCAAAUCUGCCACAAAGCUUGAGAGCAUCUUCGGAUGCAGAGGCGGCAGCCUUCGGUGGCGCGAUAGCGCCAUCGUGCUCAACUAUGACACGCAAAACGCGUGCUCCGUUGAAUGGAGUUUAUCAUG [A19U A26C A98U U102G] | ≤ -4.2
GGAUCUUCUCGAUCUAACUAAAAAGCCAAAUCUGCCACAAAGCUUGAGAGCAUCUUCGGAUGCAGAGGCGGCAGCCUUAGGUGGUGCGAUAGCGCCAACGUUCUCAACUAUGACACGCAAAGCGCGUGCUCCGUUGAAUGGAGUUUAUCAUG [A19U A26C C79A C85U A122G] | ≤ -4.2
GGAUCUUCUCGAUCUAACUAAAAAGGCAAAUCUGCCACAAUGCUUGAGAGCAUCUUCCGAUACAGAGGCGGCAGCCUUCCGUGGCGCGAUAGCGUCAACGUUCUCAACUAUGACACUCAAAACGCGUGCUCCGUUGAAUGGAGUUUAUCAUG [A19U A26G A41U G58C G62A G80C C95U G117U] | ≤ -4.2
GGAUCUUCUCGAUCUAACUAAAAAGGUAAAUCUGCCACAAAGCUUGAGAGCAUCUUCGGAUGCAGCGGCGGCAGCCUUCGGUGGCGCGAUAGCGCCAACGUUCUCAACUAUGACACGCAAAACGCGUGCUCCGUUGAAUGGAGUUUAUCAUG [A19U A26G C27U A66C] | ≤ -4.2
GGAUCUUCUCGAUCUAACUAAAAAGGCAAAUCUGCCAGAAAGCUAGAGAGCAUCUUCGGAUGCAGAGGUGGCAGCCUUCGGUGGCGCGAUAGCGCAAACGUUUUCAACUAUGACACGCAAAACGCGUGCUCCGUUGAAUGGAGUUUAUCAUG [A19U A26G C38G U45A C69U C96A C103U] | ≤ -4.2
GGAUCUUCUCGAUCUAACUAAAAAGUGAAAUCUGCCACAAAGCUUGAGAGCAUCUUCGGAUGCAGAGGUGGCAGCCUUCGGUGCCGCGAUAGCGCCAACGUUCUCAACUAUGACACGCAAAACGCGUGCUCGGUUGAAUGGAAUUUAUCAUG [A19U A26U C27G C69U G84C C132G G143A] | ≤ -4.2
GGAUCUUCUCGAUCUAACUAAAAAGUCAAAUCUGCCACAAAGCUUAAGAGCAUCUUCGGAUGCAGAGGCGGCAGCCUUCGGUGGCGAGAUUGCACCAACGUUCUCAACUAUGACACGCAAAACGCGCGCUCCGUUGAAUGGACUUUAUCAUG [A19U A26U G46A C87A A91U G94A U127C G143C] | ≤ -4.2
GGAUCUUCUCGAUCUAACUAAAAAGACGAAUCUGCCACAUCGCUUGAGAGCAUCUUCGGAUCCAGAGGCGGCAGCCUUCGGUGGCGCGAUAGUACCAACGUUCUCAACUAUGACUCGAAAAACGCGUGCUGCGUUGAAUGGAGUUUAUCAUG [A19U A28G A40U A41C G62C C93U G94A A115U C118A C131G] | ≤ -4.2
GGAUCUUCUCGAUCUAACUAAAAAGACGAAUCUGCCACAAUGAUUGAGAGCAUCUUCGUAUGCAGAGGCGGCAGCCUUCGGUGGCGAGAUAGCGCCAACGUUCUCAACUUUGACACGCAAAACGCGUGCUGCGUUGAAUGGAGUUUAUCAUG [A19U A28G A41U C43A G59U C87A A110U C131G] | ≤ -4.2
GGAUCUUCUCGAUCUAACUAAAAAGACACAUCUGCCACAAAGCUUGAGAGCAUCUUCGGAUGCAGAGGCGGCAGCCUUCGGUGGCGCGAUCGUGCCAACGUUCGCAACUAUGACACGCAAAACGCGUGCUCCGUUGAAUGGAGUUUAUCAUG [A19U A29C A91C C93U U104G] | ≤ -4.2
GGAUCUUCUCGAUCUAACUAAAAAGACAUAUCUGCCACAAAGCUUGAGAGCAUCUUCGGAUGCAGAGGCGGCAGCCUUCGGUGGCGCGAUAGUGCCAACGUUCUCAACUAUGACACUCAAAACGCGUGCUCCGUUGAAUGGAGUUUAUCAUG [A19U A29U C93U G117U] | ≤ -4.2
GGAUCUUCUCGAUCUAACUAAAAAGACAAAUCUGCCACACAGCUUGAGAGCAUCUUCGGAUGCAGAGGCGGCAGCCUUCGGUGGCGCGAUUGCGGCAACGUUCUCAACUAUGACACGCAAAACGCGUGCUCCGUUGAAUGGAGUUUAUCAUG [A19U A40C A91U C95G] | ≤ -4.2
GGAUCUUCUCGAUCUAACUAAAAAGACAAAUCUGCCACAGAGCUUGAGAGCAUCUUCGGAAGCAGAGGCGGCAGCCUUCGGUGGCGCGAUAGCGCGAACGUUCUCAACUAUGACACGCAAAACGCGUGCUCCCUAGAAUGGAGUUUAUCAUG [A19U A40G U61A C96G G133C U135A] | ≤ -4.2
GGAUCUUCUCGAUCUAACUAAAAAGACAAAUCUGCCACAACGCUUGAGAGCAUCUUCAGAUGCAGAGGCGGCAGCCUUCGGUGGGGCGAUAGCGCCAACGUUCUCAACUAUGACACGCAAAACGCGUGCUCCGUUGAAUGGAGUUUAUCAUG [A19U A41C G58A C85G] | -2.71
GGAUCUUCUCGAUCUAACUAAAAAGACAAAUCUGCCACAAGGCAUGAGAGCAUCUUCGGAUGCAGAGGCGGCAGCCUUCGGUAGCACGAUAGCGCCAACGUUCUCAAAUAUGACACGCAAAACGCGUGCUCCGUUGAAUGGAGUUCAUCAUG [A19U A41G U44A G83A G86A C108A U146C] | ≤ -4.2
GGAUCUUCUCGAUCUAACUAAAAAGACAAAUCUGCCACAAAGCUUGCGAGCAUCUUCGGAUGCAGAGGCGGCAGCCUUCGGUGGCGCGAUAGUGCCAACGUUCUCAACUAUGACACGCAAAACGCGUGCUCCGUUGAAUGGAGUUUAUCAUG [A19U A47C C93U] | -1.1
GGAUCUUCUCGAUCUAACUAAAAAGACAAAUCUGCCACAAAGCUUGAGCGCGUCUUCGGAUGCAGAGGCGGCAGCCUUCGGUGGCGCGAUAGCGCCAACGUUCUCGACUAUGACACGCAAAACGCGUGCUCCGUUGAAUGGAGUUUAUCAUG [A19U A49C A52G A106G] | ≤ -4.2
GGAUCUUCUCGAUCUAACUAAAAAGACAAAUCUGCCACAAAGCUUGAGCGCAUCUUCGGAUGCAGAGGCGGCAGCCUUCGGUGGCGCGAUGGCGCCAACGUUCUCAACUAUGACACGCAAAACGCGUGCUCCGUUGAAUGGACUUUAUCAUG [A19U A49C A91G G143C] | ≤ -4.2
